Assay results published in PubChem BioAssay AID1452 (National Center for Advancing Translational Sciences (NCATS), 2008).
In all, about 150,000 compounds went through this assay and about 190 (0.13%) were called active. The inconclusive results got no clear call from the source; some entries with a clear call stand among them for comparison. Calls follow the shape of the dose curve; as a rule, active = well fitted inhibition curve with a large enough effect; inconclusive = small, poorly fitted or top-dose-only effect; inactive = flat fitted curve, though single readings scatter. Where the call is inconclusive, the potency comes from a doubtful curve fit.

target: Polyunsaturated fatty acid lipoxygenase ALOX12 (Homo sapiens) (UniProt P18054); assay: qHTS Assay for Inhibitors of 12-hLO (12-human lipoxygenase); conditions: purified 12-hLO, xylenol orange hydroperoxide absorbance; series mostly up to 57.1 µM; also: nearly all actives have a fitted effect of over 55% in size
Outline: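 Purified human 12hLO (150 nM), preincubated 15 min with compound, then 40 uM arachidonic acid for 30 min, room temperature, Hepes pH 7.0 with 0.01% Triton X-100. Hydroperoxide detected by ferrous iron/xylenol orange; 573/405 nm absorbance ratio gives reaction progress.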
% is scaled to controls: 0 for no effect and ±100 for the full control effect; potency is read from the fitted curve at half-maximal effect; tags tell the direction and shape of the fitted curve.

UniProt P18054, sequence (P18054 whole entry, looked up): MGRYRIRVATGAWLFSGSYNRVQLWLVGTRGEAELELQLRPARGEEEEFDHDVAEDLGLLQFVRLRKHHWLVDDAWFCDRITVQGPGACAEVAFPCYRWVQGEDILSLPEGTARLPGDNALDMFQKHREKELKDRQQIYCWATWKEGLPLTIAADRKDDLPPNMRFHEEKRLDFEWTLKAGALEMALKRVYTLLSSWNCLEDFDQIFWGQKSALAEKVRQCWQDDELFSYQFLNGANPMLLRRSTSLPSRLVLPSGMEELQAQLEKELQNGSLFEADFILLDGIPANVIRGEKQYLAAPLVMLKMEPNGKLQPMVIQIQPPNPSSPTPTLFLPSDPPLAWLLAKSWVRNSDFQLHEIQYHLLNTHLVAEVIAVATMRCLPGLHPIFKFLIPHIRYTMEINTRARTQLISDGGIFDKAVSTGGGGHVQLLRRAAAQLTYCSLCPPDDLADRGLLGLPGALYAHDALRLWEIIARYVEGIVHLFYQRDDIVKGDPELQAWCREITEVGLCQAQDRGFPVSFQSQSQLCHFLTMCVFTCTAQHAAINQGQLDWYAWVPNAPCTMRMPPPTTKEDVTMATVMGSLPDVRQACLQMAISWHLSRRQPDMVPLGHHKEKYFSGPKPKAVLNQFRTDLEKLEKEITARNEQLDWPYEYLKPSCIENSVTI

Compound	Potency	activity change, negative = inhibition
CCCn1c(C)cc(/C=C(\C#N)C(=O)OCC(=O)NC(=O)NCC)c1C	inconclusive: 35.5 µM [inhibitor, single point]	
CC(C)=CCCC1(C)C=Cc2c(O)c3c(c(CC=C(C)C)c2O1)OC12C(=CCCC1C(C)(C)O[C@@]2(C/C=C(\C)C(=O)O)C(=O)O)C3=O (some centres not stated)	inconclusive: 11.2 µM [inhibitor, partial curve]	
COc1cccc(O)c1O	inconclusive: 39.8 µM [inhibitor, single point]	
S=C(c1ccc(-c2cc(Cl)ccc2Cl)o1)N1CCOCC1	inconclusive: 31.6 µM [inhibitor, single point]	
CSC1=NSC2=NC(=O)/C(=C\c3coc4ccccc4c3=O)C(=N)N12	inactive	
O=S(=O)(N/N=C\C=C\c1ccccc1)c1ccc(Br)cc1	inconclusive: 14.1 µM [inhibitor, partial curve]	
CCCOc1cccc(-c2cc(-c3n[nH]c(=S)n3CC)c3ccccc3n2)c1	inconclusive: 28.2 µM [inhibitor, single point]	
COc1ccccc1NC(=S)NCCc1ccccc1	inconclusive: 31.6 µM [inhibitor, single point]	
Cc1ccc(Nc2nc(-c3c(C)nc4ncccn34)cs2)cc1	inconclusive: 28.2 µM [inhibitor, partial curve]	
COC(=O)C1=C(C)N(Cc2ccc(C)cc2)C(=O)/C1=C\c1ccc(O)c(OC)c1	inconclusive: 35.5 µM [inhibitor, single point]	
Cn1c(NNC(=O)CCC2CCCCC2)cc(=O)n(C)c1=O	inactive	
Cc1[nH]c2ccccc2c1C(c1ccccn1)N1CCC(C(N)=O)CC1 (configuration not stated)	inconclusive: 31.6 µM [inhibitor, single point]	
CCOc1ccccc1N1C(=O)CC(Nc2ccc(N3CCOCC3)cc2)C1=O (configuration not stated)	inconclusive: 11.2 µM [inhibitor, partial curve]	
CCOC(=O)c1cnc(SC)nc1Oc1cccc(NS(=O)(=O)c2ccc(Cl)cc2)c1	inactive	
COc1cc(CNc2ccc(N3CCCC3)cc2)ccc1OCc1ccccc1	inconclusive: 25.1 µM [inhibitor, single point]	
O=C(NC(=S)Nc1ccc(S(=O)(=O)NC2CCCCC2)cc1)c1cccs1	active: 5.01 µM	
C(=N\n1cnnc1)/c1ccc(N2CCOCC2)s1	inconclusive: 31.6 µM [inhibitor, partial curve]	
CNC(=S)N/N=C/c1cn(CCOc2ccccc2OC)c2ccccc12	inconclusive: 28.2 µM [inhibitor, single point]	
Cc1cc(C)cc(NC2=CC(=O)CC(c3ccco3)C2)c1 (configuration not stated)	inconclusive: 6.31 µM [inhibitor, single point]	
CCOC(=O)C1=C(C)N(C)C(=S)NC1c1ccc(Cl)cc1 (configuration not stated)	inconclusive: 28.2 µM [inhibitor, single point]	
Cc1oc(C)c2c(=O)ccc3c(c12)OC(N)=C(C#N)C3c1ccc(F)cc1 (configuration not stated)	inconclusive: 7.94 µM [inhibitor, partial curve]	
COC(=O)c1ccc(CC(=O)c2c(C)cc(O)cc2O)o1	inconclusive: 20 µM [inhibitor, partial curve]	
COC(=O)c1ccc(CSc2nc(N3CCOCC3)c3c(c2C#N)CC(C)(C)OC3)o1	inactive	
Cc1cs/c(=N/C(=S)Nc2ccccc2)n1C	inconclusive: 3.16 µM [inhibitor, single point]	

Compound	Potency	activity change, negative = inhibition
COc1ccc(-c2nn(-c3ccccc3)cc2/C=N/N2C(=O)CSC2=S)cc1	inconclusive: 28.2 µM [inhibitor, single point]	
CC1CCCC(NC(=S)Nc2ccc(SC(F)F)cc2)C1C (configuration not stated)	inconclusive: 28.2 µM [inhibitor, single point]	
COc1cccc2c1NC(C(=O)O)C1CC=CC21 (configuration not stated)	inactive	
CCCc1cc(C(=O)Cc2ccc(C(=O)OCC)o2)c(O)cc1O	inconclusive: 8.91 µM [inhibitor, single point]	
O=C1CN(C(=O)OCc2ccccc2)c2ccccc2N1	inactive	
Cc1ccc(C(=O)c2coc3c2C(=O)C(=O)c2ccccc2-3)cc1	inactive	
COc1ccc(NS(=O)(=O)c2ccc(NC(=S)NC(=O)c3cccc(F)c3)cc2)nn1	inconclusive: 35.5 µM [inhibitor, single point]	
O=C(O)Cc1cc2ccccc2nc1C(=O)O	inactive	
COc1ccc(-c2ccc(-c3cc(=O)oc4cc(C)cc(C)c34)cc2)cc1		inactive: 0.991% [at 0.00818 µM]
CCCOc1cc(C)c(S(=O)(=O)n2ccc(C)n2)cc1C	inactive	
CCOc1ccc(C(c2c(NC(=O)c3ccccc3)sc(C)c2C)N2CCN(CCO)CC2)cc1 (configuration not stated)	inconclusive: 15.8 µM [inhibitor, partial curve]	
CCCCS(=O)(=O)N1CCc2nc(-c3ccccc3)c3c(c2C1)CO[C@@H](C)C3		inactive: 1.31% [at 11.4 µM]
O=C(Nc1ccc(CN2CCOCC2)cc1)c1ccc(-c2cccc(Cl)c2)o1	inactive	
Cc1ccc(NC(=O)N/C=C/c2ccco2)cc1	inconclusive: 14.1 µM [inhibitor, partial curve]	
Cc1cccc(OC(=O)C2C(c3ccccc3)C(C(=O)O)C2c2ccccc2)c1 (configuration not stated)	inactive	
CN(C)S(=O)(=O)c1cccc(-c2cn3ccccc3n2)c1	inactive	
O=C(/C(=N/N=C/c1ccc(O)c(O)c1O)c1ccccc1)c1ccccc1	inconclusive: 0.282 µM [inhibitor, full curve]	
CC(C)CN(C#N)c1nc(N2CCOCC2)nc(N2CCOCC2)n1	inactive	
CCOC(=O)CC(=O)CSc1ccc2nnc(-c3ccc(C)cc3)n2n1	inactive	
CCNc1ncc2nc(-c3ccccc3)c(=O)n(Cc3ccc(F)cc3)c2n1	inactive	
COc1cccc(OC)c1NC(=O)CN1CCC(NC(=O)c2cccc(F)c2)CC1	inactive	
CC(C)(C)CC(C)(C)NC(=S)NC1CCN(Cc2ccccc2)CC1	inconclusive: 25.1 µM [inhibitor, single point]	
Cc1cccc2cc(C#N)c(SCC(=O)N3CCC(C)CC3)nc12	inactive	
Cc1cc2cc(CN(Cc3ccc4c(c3)OCO4)C(=O)c3ccco3)c(=O)[nH]c2cc1C	inconclusive: 11.2 µM [inhibitor, partial curve]	

Compound	Potency	activity change, negative = inhibition
O=C1C=CC2=C3c4cc(O)c(O)cc4CC3(O)COC2=C1O (configuration not stated)	inconclusive: 15.8 µM [inhibitor, partial curve]	
Cc1cccc(/C=C\c2ccccc2)n1	inactive	
CCOC(=O)C1=C(c2cccc(Oc3ccccc3)c2)NC(=S)NC1C (configuration not stated)	inconclusive: 14.1 µM [inhibitor, partial curve]	
Cc1ccc(-c2cc(-c3ccc(C)o3)nc(N)c2C#N)cc1	active: 15.8 µM	
C=C(C)CNC(=S)NNC(=O)CCn1c2cc(Cl)ccc2c2ccc(Cl)cc21	inconclusive: 25.1 µM [inhibitor, single point]	
COc1ccc(Cl)cc1NC(=S)NCCSc1ccc(C)cc1	inconclusive: 25.1 µM [inhibitor, partial curve]	
O=[N+]([O-])c1ccc(O)c2ncccc12	inconclusive: 31.6 µM [inhibitor, single point]	
COc1ccc(OC)c(CCNC(=O)Cn2sc3nc(C)cc(C)c3c2=O)c1	inconclusive: 0.708 µM [inhibitor, full curve]	
O=[N+]([O-])c1cc(C2Nc3cccc4cccc(c34)N2)ccc1Cl	inconclusive: 3.16 µM [inhibitor, full curve]	
Cc1cc(=O)[nH]c(N=N/C(=N/Nc2ccc(O)cc2)c2ccccc2)n1	inconclusive: 35.5 µM [inhibitor, single point]	
Cc1cc([N+](=O)[O-])ccc1NC(=S)NC(=O)C(c1ccccc1)c1ccccc1	inconclusive: 35.5 µM [inhibitor, single point]	
S=C(NCc1ccc(Cl)cc1Cl)Nc1ccccc1	inconclusive: 39.8 µM [inhibitor, single point]	
COc1cc(/C=C2\S/C(=N/S(=O)(=O)c3ccc(C)cc3)NC2=O)c([N+](=O)[O-])cc1OC	inconclusive: 25.1 µM [inhibitor, single point]	
Cc1c(NS(C)(=O)=O)c(=O)n(-c2ccccc2)n1C	inactive	
COc1cc(-c2nn3c(-c4ccco4)nnc3s2)cc(OC)c1OC	inactive	
COc1ccc(C(=O)NC(=S)Nc2ccc(N3CCOCC3)c(Cl)c2)cc1[N+](=O)[O-]	inconclusive: 3.16 µM [inhibitor, full curve, poor fit]	
CSc1ccc(C2C(C#N)=C(N)Oc3c2ccc(=O)c2c(C)oc(C)c32)cc1 (configuration not stated)	inconclusive: 12.6 µM [inhibitor, partial curve]	
C=CCn1c(SCC(=O)Nc2ccccc2)nc2scc(-c3cccs3)c2c1=O	inactive	
CC(=O)N1CCC2(CC1)CCN(c1ccc(-c3ccccc3)cc1)CC2	inconclusive: 15.8 µM [inhibitor, partial curve]	
CN(C)CCc1c[nH]c2ccc(CS(=O)(=O)N3CCCC3)cc12	inactive	
COc1ccccc1Oc1c(C)oc2c(CN3CCN(C)CC3)c(O)ccc2c1=O	inactive	
CCCCOc1cccc(-c2cc(C(=O)NNC(=S)NCC)c3ccccc3n2)c1	inconclusive: 25.1 µM [inhibitor, single point]	
CCc1ccc(C2C(C#N)=C(N)SC(N)=C2C#N)s1	inconclusive: 20 µM [inhibitor, partial curve]	
CCOC(=O)c1ccc2[nH]cc(C(C)=O)c(=O)c2c1	inactive	
